# Assay results published in ChEMBL document CHEMBL4888484, “Replenishing the malaria drug discovery pipeline: Screening and hit evaluation of the MMV Hit Generation Library 1 (HGL1) against asexual blood stage Plasmodium falciparum ,using a nano luciferase reporter read-out” (2022).
# Hit rate of the full screen: of about 150,000 compounds, about 540 (0.36%) showed an effect of 50% or more. The list shows a part of the results.
# System: Plasmodium falciparum
# Assay: Primary screen in NF54 nanoGlo assay, in single point, at 2uM, 72h; a lower Z score goes with more inhibition
# Assay type: functional, Erythrocyte
# Conditions: timepoint 72 hour
SMILES,% Inhibition [%],Z score
CN(CCN(C)C1CCCC1)C(=O)CCC(=O)c1ccccc1,-10,1.74
CCc1cccnc1C(=O)N[C@H](c1ncccn1)C1CC1,6,-0.71
C[C@@H]1NC(=O)[C@@H]2C[C@H](NC(=O)c3cccnc3Oc3ccc(Cl)cc3)CN2C1=O,-9,1.01
N#C[C@H]1CCCN(C(=O)Nc2cc(C(=O)N3CCOCC3)ccc2Cl)C1,-6,0.88
CC(O)C1CCN(C(=O)NCCOc2ccc(C(C)(C)C)cc2)C1 (configuration not stated),-8,0.72
CCOc1ccc(CNC(=O)c2cnc3c(-c4cccc(C)c4)c(C)nn3c2C(F)(F)F)cc1,-7,0.78
Cc1nc(N)nc(-c2cccc(C(=O)N3CCC(F)(F)CC3)c2)c1Cl,-16,2.29
O=C(c1cc(=O)c2ccccc2[nH]1)N1C[C@@H]2[C@H]3CC[C@H](CC3)[C@@H]2C1,5,-1.09
CC(C)Cc1nc(N2CCN(C(=O)C3CCCC3)CC2)c2c(-c3cccc(Oc4ccccc4)c3)noc2n1,-10,1.24
C=CCN(CC=C)C(=O)CN[C@@H](C)c1cn(C)nc1C,-10,1
CN(C)[C@@H](CNC(=O)Cn1cccn1)c1ccsc1,-7,1.31
O=C(O)[C@H]1c2nc[nH]c2CCN1Cc1cccc(Oc2ccccc2)c1,19,-2.68
CCO[C@@H](C)C(=O)NCCCN(C)c1ccccc1,-3,0.42
CCCOc1ccc([C@@](C)(C#N)CC#N)cc1,4,-0.52
c1ccc(C(NCc2cc[nH]n2)C2CCCc3ccccc32)cc1 (configuration not stated),-7,0.75
Cc1cccc(OCc2ccc(C(=O)N3CCOCC3)cc2)c1,-14,1.53
C[C@H](NCc1c2c(nn1C)CCCC2)c1ccccc1Cl,2,-0.21
CC(c1cnn(C)c1)c1nc(C2CCOC3(CCC3)C2)no1 (configuration not stated),-15,3.07
CCCCc1nc(N2CCOCC2)c(C#N)c2c1COC(C)(C)C2,-7,1.09
COc1cccc(N2CCN(C(=O)c3cc4c(=O)n(C)ccc4n3C)CC2)c1,-12,1.21
COc1ccc(-c2ccnc3nc(C4CC4)nn23)c(F)c1,-4,0.45
O=C(OC[C@H]1CCCCO1)N1CCC(S(=O)(=O)Cc2ccccc2)CC1,-10,1.59

SMILES,% Inhibition [%],Z score
COc1ccc(CN2CCN(C(=O)c3ccc4[nH]cnc4c3)CC2)cn1,0,-0.03
Cc1csc([C@@H](NCc2ccccc2N(C)C)C2CC2)n1,2,-0.16
CC1CN(CCO)CCN1C(=O)C(O)C1CCC1 (configuration not stated),-1,0.2
COc1nc2c(cc1CNC(=O)CN1CCCCC1)C(=O)N(C1CCCC1)C2,-20,2.3
CC(NC(C)c1ccccc1Oc1ccccc1)c1cnccn1 (configuration not stated),-6,0.84
O=C(c1cnc2[nH]nnc2c1)N1CCCC2(CCCCC2)C1,-14,2.41
COc1ccc(CC(=O)Nc2ccc3[nH]c(=O)sc3c2)cc1,2,-0.29
N#CCCn1cc(CN2CCS(=O)(=O)CC2)c(-c2ccccc2)n1,-7,1.08
CCN1C(=O)[C@@H]2CC3(CCN(Cc4ccc(C(F)(F)F)cc4)CC3)CN2C1=O,-2,0.36
CC(C)c1nc(-c2ccc(C(=O)N3CCN(c4nc5ncccc5o4)CC3)cc2)no1,-5,0.91
Cc1nccn1-c1cc(CNC(=O)c2ccsc2)ccn1,35,-3.97
O=C(C1CCCO1)N1CCNCC1c1cccnc1 (configuration not stated),-10,1.93
O=C(CN1CCCCCC1=O)N1CCN(S(=O)(=O)c2ccc3c(c2)CCCC3)CC1,-1,0.12
Cn1c(C(=O)N[C@H]2CCN(CC(F)F)C2)cc(=O)c2ccccc21,3,-0.46
O=C1NCCCC[C@@H]1N(Cc1cccc(OCCc2ccccc2F)c1)S(=O)(=O)c1cccc2cccnc12,6,-0.73
CC1CCCC(C)N1C(=O)CN[C@H](CO)c1ccccc1 (some centres not stated),-5,0.55
c1ccc2c(c1)CN(c1ncnc3sccc13)CCN2,-1,0.15
Cc1ccc(OCCN)c(C(=O)N[C@H]2CCC[C@H]2Cc2ccc(F)cc2)c1,3,-0.35
CCc1nc(CN(C)[C@H]2CCN(C)C2=O)no1,-9,1.44
Cc1cnc(CNc2nc(C(C)C)no2)o1,-3,0.38
C=CCN(C(=O)[C@H]1CC(=O)N(C2CCCC2)C1)C1CCCC1,-6,0.98
c1ccc2nc(N3CCC4(CC3)CNCCO4)cnc2c1,-3,0.55

SMILES,% Inhibition [%],Z score
O=C(OCCn1ncc2ccccc21)c1cscn1,0,-0.04
COCCN(CCC(=O)NCc1cccnc1)C(=O)c1csc(Nc2ccccc2OC)n1,-2,0.21
CN1C(=O)N(c2ccccc2)/C(=N\O)C1(C)C,-8,0.89
CNC(=O)c1cccc(C(=O)OCCn2ncc3ccccc32)c1,-10,1.42
Cc1cc(NC(=O)CN2CCOCC2)on1,-14,2.66
O=C1NCCN(Cc2ccoc2)[C@H]1CC(=O)N1CCCO1,-5,0.8
Oc1ccc(-c2nc(CCCOc3ccc(Cl)cc3Cl)n[nH]2)cc1,-8,1.1
CC(CC1NCCC2(O)CCCCC12)c1ccccc1 (configuration not stated),-3,0.54
COC(=O)[C@]1(C)C[C@H](C(=O)NC2CCC2)[C@H](c2ccc(Cl)cc2)N1C,-11,1.57
Cc1nc2ccccc2n1Cc1cc(C(=O)NCCS(C)(=O)=O)no1,-6,0.82
CC(=O)Nc1ccc(NC(=O)CC2OCC3CCCCN3C2=O)cc1 (configuration not stated),-31,3.59
Cc1csc(CNc2ccc(C(F)(F)F)nc2)n1,-7,0.91
CN(C)c1cccc(C(=O)N2CCOC[C@@H](CO)C2)c1,-9,1.69
Cn1cc(C(=O)C(=O)N(Cc2ccc(F)cc2)C(C)(C)C)cn1,-1,0.14
Cc1nn(C)cc1-c1nn(-c2nc(-c3ccc(Cl)cc3)cc(C(F)(F)F)n2)c(-c2cn(C)nc2C)c1Cl,35,-3.93
COc1cccc2sc(N(C)CC(=O)Nc3cccc(OC(F)F)c3)nc12,-6,1.09
COC(=O)C(C)(C)NC(=O)c1ccnc2[nH]cnc12,-7,1.46
Cc1ccnc([C@@H](NC(=O)c2ccc(C)n2C(F)F)C2CC2)c1,-15,1.66
COc1ccc(NC(=O)Cn2cnc3c(nnn3C)c2=O)cc1OC,-9,1.47
Cc1n[nH]cc1CNCc1ccccc1CN1CCOCC1,-6,0.86
Cc1ccc(C2(c3noc(CN4CCC(OCc5cccnc5)CC4)n3)CCCC2)cc1,-3,0.4
COc1ccc(OCC(=O)N(Cc2cccc(Br)c2)[C@H]2CCS(=O)(=O)C2)cc1,-9,0.82

SMILES,% Inhibition [%],Z score
CCCN1CCCN(c2nc(OC)nc(N3CCCCCC3)n2)CC1,-1,0.07
CCc1nnc(CNC(=O)c2cnc(-c3cccnc3)nc2)s1,-12,1.6
Cc1nc(-c2cnc(C3CC3)nc2C)n(C2CCN(C)CC2)n1,-9,1.75
CC1(C)CC(NC(=O)COc2ccccc2)CC(C)(CNC(=O)COc2ccccc2)C1 (configuration not stated),-2,0.22
CC1(C)C[C@]1(C(=O)NCc1nc(-c2cnccn2)n[nH]1)c1ccccc1F,-3,0.31
COc1ccc2c(c1)OC[C@]1(CO)CN(CC(=O)N3CCOCC3)C[C@H]21,-2,0.27
CC1(C)C(CNC(=O)COc2ccccc2O)C1(C)C,-12,1.66
CC(C)Oc1cc(N2CCCNC(=O)C2)nc(N)n1,-8,1.51
O=C(Cc1cccc(Cl)c1)NC[C@H]1CCN(C2CCCC2)C1,0,-0.04
c1ccc(-c2noc(Cc3cc(C4CC4)no3)n2)c(Cn2cccn2)c1,-5,1.04
Cc1cccc2c1CCN2Cc1cnn([C@@]2(C)CCS(=O)(=O)C2)c1,1,-0.17
Fc1cc(-c2cnc3ccc(F)cn23)c2ncccc2c1,0,-0.08
Nc1ccc2ncn(C3CC3)c(=O)c2c1,-3,0.32
CCc1ccc(-c2c(C)sc(NC(=O)C3CCN(C(C)=O)CC3)c2C(N)=O)cc1,-2,0.31
COc1ccc(C(NS(=O)(=O)C(C)C)[C@H]2C[C@@H](O)C2)cn1 (some centres not stated),-9,1.2
CC1(CCc2nc([C@H]3CCOC3)n[nH]2)CC1,1,-0.14
O=C(CNc1ncc(Cl)cn1)NC1CCCCC1,29,-3.96
CN(C)S(=O)(=O)Oc1ccc2c(c1)OCO2,-3,0.44
Cc1nnc([C@H](C)Nc2ccc(-c3cccc(F)c3)c(F)c2)o1,-17,1.94
COc1ccc(CCC(=O)N2CC(N3CCC(C(N)=O)CC3)C2)cc1,-10,1.9
